# Test results: the BET-seq Pho4 binding data (Le et al. 2018)
# The other results are listed elsewhere or left out. The energies were worked out here from pooled read counts, against the library average; single values are noisy.
# Biological target: T1, Pho4 (S. cerevisiae) (UniProt P07270)
# T1 sequence: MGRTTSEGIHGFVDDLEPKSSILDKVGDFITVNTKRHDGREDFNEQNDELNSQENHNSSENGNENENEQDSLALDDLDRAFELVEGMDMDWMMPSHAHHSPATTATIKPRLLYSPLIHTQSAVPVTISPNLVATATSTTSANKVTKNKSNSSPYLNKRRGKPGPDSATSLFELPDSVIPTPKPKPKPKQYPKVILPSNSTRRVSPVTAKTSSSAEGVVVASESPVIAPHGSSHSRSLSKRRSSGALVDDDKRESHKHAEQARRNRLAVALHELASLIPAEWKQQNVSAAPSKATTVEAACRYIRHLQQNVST
# Test: relative binding free energy (BET-seq); higher = weaker binding
# Conditions: reference: library average
row,Sequence,relative binding free energy [kcal/mol]
1,TACTGCACGTGTGTTA,-0.02
2,TGAGTCACGTGGGGCA,-0.03
3,GATTCCACGTGTTTGT,-0.06
4,CAGGGCACGTGAATGG,-0.03
5,TGGGTCACGTGACGCG,0.24
6,AACTTCACGTGTTATG,0.24
7,GTAGGCACGTGGGAGG,-0.13
8,GTATACACGTGCGGTG,0.12
9,AAGTACACGTGGCGGT,0.25
10,CGTTACACGTGGCGTT,0.03
11,CTTGGCACGTGTAATT,0.05
12,GTGATCACGTGTGTGC,0.06
13,GAGGACACGTGGGATG,-0.09
14,GTTAACACGTGTATTG,-0.09
15,AGTTTCACGTGGCTAG,0.15
16,GGGTACACGTGCGTCG,-0.09
17,CTTCTCACGTGGGGTT,0.03
18,ATCTTCACGTGGTATA,0.26
19,TTCGGCACGTGTAGTT,-0.13
20,AGTACCACGTGTTGAG,0.07
21,TTTGTCACGTGAATTA,0.09
22,TTTATCACGTGGCGGT,0.19
23,TTCGCCACGTGTTTGT,-0.01
24,TTTGGCACGTGTTGCT,-0.13
25,AGACGCACGTGGTGTA,-0.13
26,GGCGGCACGTGTAAGG,0.07

row,Sequence,relative binding free energy [kcal/mol]
1,TTTCGCACGTGTAGTG,0.05
2,TAGTTCACGTGATTCG,0.27
3,TTATACACGTGTGAGT,-0.03
4,TAATGCACGTGGTGCT,-0.15
5,AGTCTCACGTGAGGGA,0.33
6,ATGTCCACGTGATTTT,0.2
7,GTCGTCACGTGCGGTG,0.1
8,TTTTGCACGTGGCGAA,-0.1
9,GGAGTCACGTGTCAAG,0.16
10,CCTTGCACGTGGGTTG,-0.16
11,AGATCCACGTGTGTTT,0.05
12,CGTAACACGTGGAGTG,-0.15
13,GTTCGCACGTGATGGT,0.11
14,ATGTGCACGTGCATTT,0.05
15,GTGGGCACGTGTTGAA,0.04
16,ATAGTCACGTGGGTGA,-0.15
17,AAGTTCACGTGATGTC,0.3
18,TGTATCACGTGCGAGA,0.15
19,CTATGCACGTGGTTTA,-0.14
20,CTGCTCACGTGGTGGG,0.2
21,GTTGGCACGTGGTGTC,-0.06
22,ATTGTCACGTGCGAAT,0.08
23,CGTTTCACGTGTGGAT,0.22
24,TAACACACGTGGGGTG,-0.21
25,GTCGTCACGTGTGGTC,0.08
26,TATTTCACGTGTGTGG,0.36

row,Sequence,relative binding free energy [kcal/mol]
1,GATATCACGTGGTGTA,0.05
2,GGGGACACGTGGACTT,0.04
3,GTGGGCACGTGGCCGT,-0.25
4,TGTATCACGTGGCTGC,0.13
5,AGGGGCACGTGGACAT,-0.1
6,CGTGGCACGTGGTGGG,-0.13
7,TGGGACACGTGGAATA,0.18
8,TGCTTCACGTGGTTCT,0.18
9,GGAAGCACGTGGCTTG,-0.08
10,CTTTTCACGTGGTTAG,0.21
11,TGATCCACGTGGTTGT,-0.09
12,TGGGGCACGTGGGCCC,-0.26
13,ATTGTCACGTGGTTAC,-0.05
14,CATCTCACGTGTTGGG,0.21
15,TGGCACACGTGTCAGG,0.12
16,TGAATCACGTGTGAAG,0.23
17,TGCGGCACGTGGGTGC,-0.38
18,AGGCGCACGTGTAGTT,-0.07
19,GTGGCCACGTGTGAGT,0.03
20,GGGGGCACGTGGTATT,-0.06
21,GGAGTCACGTGCGTGA,0.03
22,CTGGTCACGTGCCGGG,0.11
23,TTGTACACGTGTGGTG,0.04
24,TTCCTCACGTGTGTTT,0.31
25,TGTGCCACGTGGTATA,-0.2
26,TCAGTCACGTGGAGGG,0.16

row,Sequence,relative binding free energy [kcal/mol]
1,TGGTGCACGTGAAGCT,0.17
2,TTACTCACGTGTTGGA,0.32
3,GGCTGCACGTGCGGTA,0.09
4,GCTAGCACGTGGCGTG,-0.06
5,AGTTTCACGTGAGGGC,0.35
6,TTTTCCACGTGTGTTT,0.2
7,TAGGGCACGTGATTGA,-0.09
8,ACGGTCACGTGGTGAG,0.1
9,GAGGGCACGTGGTTGC,-0.11
10,CAGGGCACGTGGGTAA,-0.18
11,AGGTACACGTGGTGGG,0
12,TTGTTCACGTGGACAT,0.04
13,TGTTTCACGTGGGAGA,0.17
14,AGTTTCACGTGATAGG,0.33
15,TAGGTCACGTGGGGCT,-0.08
16,TATAGCACGTGACAGG,0.09
17,TATTTCACGTGCTCTG,0.19
18,CGGGTCACGTGTTATT,0.17
19,CGCTGCACGTGTGTTT,0.03
20,TTTCCCACGTGGGTGT,-0.28
21,TTATTCACGTGAAATT,0.38
22,CTATTCACGTGTTAGT,0.21
23,GTCTGCACGTGAATTG,0.33
24,CGGTACACGTGGGTGA,-0.16
25,GGGATCACGTGTTCTG,0.16
26,TTATGCACGTGGACCG,0.05

row,Sequence,relative binding free energy [kcal/mol]
1,AATTACACGTGTTTAT,0.08
2,AGGGTCACGTGATGAG,0.19
3,TGTTTCACGTGGGCCA,0.03
4,TGCTGCACGTGGTCTG,-0.12
5,TGTGCCACGTGTGTGT,0.04
6,CGAGTCACGTGCGGGG,-0.05
7,TCGGTCACGTGCATTT,0.19
8,ATACGCACGTGCAGGG,0
9,TGGCGCACGTGTTGAA,0.1
10,TAGAGCACGTGTAATT,0.16
11,AGAGCCACGTGGGGGC,-0.28
12,GGTAACACGTGCTGTG,-0.17
13,CGATTCACGTGATTGG,0.34
14,TCTTTCACGTGGTTGA,0.21
15,CTAGGCACGTGATTGT,-0.05
16,GAGTGCACGTGTATTT,0.06
17,AGATGCACGTGTATTG,-0.05
18,CGATGCACGTGTAGTG,-0.05
19,TATGCCACGTGGCAGG,-0.14
20,ATGGTCACGTGACGTG,0.32
21,AGGGTCACGTGGTCAG,0.12
22,AGGCGCACGTGTTGGG,-0.1
23,AGATTCACGTGAGTAG,0.37
24,AGAAGCACGTGTGTGG,-0.12
25,GTTTTCACGTGAATAG,0.43
26,ATAAGCACGTGGATTG,-0.04

row,Sequence,relative binding free energy [kcal/mol]
1,TGAAGCACGTGCGAGG,-0.12
2,TGCATCACGTGCGGGG,0.01
3,TGTACCACGTGTTGGG,-0.08
4,GAAGGCACGTGAGGTA,0.07
5,GTGTTCACGTGAATAG,0.48
6,TAGAGCACGTGATTAG,-0.05
7,CAAATCACGTGGGGGG,0.07
8,AGTCTCACGTGTAGTA,0.19
9,TGTGCCACGTGTAGGG,-0.03
10,GTGATCACGTGGTGTC,-0.01
11,AAGAGCACGTGAAGTT,0.23
12,GGGGGCACGTGATCTA,-0.05
13,GGGTACACGTGGGACG,-0.04
14,GATTTCACGTGATGAG,0.35
15,GTTGACACGTGTTATC,0.18
16,ATTAACACGTGTTATT,0.06
17,TAGTTCACGTGCTTGT,0.2
18,TGCTGCACGTGGCGGT,-0.24
19,CATTGCACGTGTTAGG,-0.14
20,AGGGGCACGTGATATG,0.03
21,ACGTTCACGTGTGGAT,0.16
22,TGATTCACGTGGCGAA,0.29
23,TGGGTCACGTGTTTTG,0.16
24,TTTTCCACGTGATTGT,0.03
25,GTGTTCACGTGGAATG,0.3
26,CGGACCACGTGGTGGT,-0.15

row,Sequence,relative binding free energy [kcal/mol]
1,AGTATCACGTGAGGTT,0.38
2,GAGTGCACGTGGGCAT,-0.1
3,GGAGACACGTGAGTAG,0.28
4,GCATGCACGTGGAGGT,0.15
5,GGGCACACGTGTAAGT,0.05
6,GGCGACACGTGTAGGG,0.07
7,ATGGTCACGTGGATTT,0.2
8,GAAGTCACGTGGGTAA,-0.02
9,GTAAACACGTGTGGAG,0.02
10,TCGTGCACGTGTTGCT,-0.02
11,TGTTGCACGTGTCCGT,-0.22
12,AATGTCACGTGGGGCA,-0.18
13,GGTGTCACGTGCGGTC,0.03
14,AGTGCCACGTGGTGGG,-0.15
15,ATGAGCACGTGAGGCT,0.05
16,CAGGGCACGTGGCGTA,-0.14
17,CGTTGCACGTGCGAGT,0.02
18,GGGAACACGTGATGGA,0.19
19,AATTGCACGTGGTAAT,-0.01
20,TGGAACACGTGTTGTT,0.03
21,GGTGGCACGTGGGGTT,-0.04
22,AGATCCACGTGTGGGA,0.11
23,ATATGCACGTGTCAGG,-0.12
24,GGGGCCACGTGATTGG,0.09
25,AATTTCACGTGTGTGG,0.34
26,GTAGACACGTGAGAGT,0.18

row,Sequence,relative binding free energy [kcal/mol]
1,TAATACACGTGGTATT,-0.07
2,TTTAGCACGTGTTACG,-0.03
3,TTGTTCACGTGGGTCC,-0.04
4,ATAGTCACGTGATGGG,0.27
5,AATGTCACGTGGTACG,0.02
6,CAAGGCACGTGTAGGG,0
7,TGGCGCACGTGCTGGA,0
8,GGATTCACGTGGGTAG,0.26
9,TTAGGCACGTGACTGA,-0.01
10,TTGGACACGTGTATGA,0.06
11,GTTTACACGTGAACGG,0.32
12,TCGTACACGTGGAGTG,-0.04
13,AGTGTCACGTGGTTTG,0.05
14,ACAATCACGTGTGTTG,0.3
15,AAGATCACGTGAAGTT,0.4
16,AGACTCACGTGTTTGG,0.25
17,TATATCACGTGGGGCA,0.05
18,CTTGGCACGTGTGGCT,-0.07
19,GGGACCACGTGAGAGG,0.17
20,ATGGTCACGTGTGTAC,0.17
21,AGGGGCACGTGCCGTA,-0.15
22,TTTTGCACGTGGTTGT,-0.01
23,GGGCTCACGTGAGCGG,0.27
24,TGACGCACGTGTTTGA,-0.09
25,TGTAGCACGTGAGATA,0.03
26,CTAATCACGTGGGGTA,0.06

row,Sequence,relative binding free energy [kcal/mol]
1,ATTCTCACGTGGGTTT,0.22
2,TGTAGCACGTGGGCGG,-0.24
3,TTTTGCACGTGCTTCT,-0.04
4,AGCTACACGTGTGGAG,0.13
5,ATTGGCACGTGATGGG,0.1
6,TATGGCACGTGTGACG,0.11
7,GCAGGCACGTGTTGTG,-0.06
8,GCGGCCACGTGGGGTG,-0.17
9,TAATGCACGTGGTATA,-0.2
10,GGGTTCACGTGTACTT,0.2
11,TATAGCACGTGTTTAT,-0.21
12,GATATCACGTGTTTGG,0.17
13,GTGTGCACGTGGGATA,-0.09
14,ATGGTCACGTGTGAAG,0.19
15,TTAAGCACGTGAAGAG,0.18
16,GAGTTCACGTGTTGAT,0.28
17,AGGTGCACGTGCTGGA,-0.16
18,GCGTGCACGTGGGGGT,-0.23
19,GGGACCACGTGCTGGT,0.06
20,GGGTCCACGTGCGGTG,0.02
21,CCGGTCACGTGGTGGT,0.01
22,TGGGCCACGTGCGTGC,-0.19
